Test results as given in patent publication US8828401B2, “Cytotoxic peptides and antibody drug conjugates thereof” (Pfizer Inc., priority 2011, dated 2014).

What was measured:
[1] = tested on: MDA-MB-468 breast xenografts; test: MDA-MB-468 breast xenografts with anti-Notch ADCs; assay type: in vivo, female SCID Hairless Outbred (SHO) mice
Method: Humanized anti-Notch antibodies, hu28 and hu75, and rat-human chimeric anti-Notch antibodies, ch28 and ch75, were conjugated to various linker-payload combinations and tested in 37622A1 non-small cell lung cancer (NSCLC), HCC2429 lung cancer, MDA-MB-468 breast cancer and N87 gastric cancer xenograft models. For each model described below the first dose was given on Day 0. The tumors were measured at least once a week and their volume was calculated with the formula: tumor volume (mm^3)=0.5×(tumor width^2)(tumor length). The mean tumor volumes (±S.E.M.) for each treatment group were calculated having a maximum of 10 animals and a minimum of 6 animals to be included.
Similar in vivo experiments were performed with the MDA-MB-468 breast cancer cell line as described above. […] To generate xenografts, female SCID Hairless Outbred (SHO) mice were orthotopically implanted with 10×10^6 MDA-MB-468 cells containing 50% Matrigel (BD Biosciences) in the mammary fat pad. When the tumors reached a volume of 250 to 450 mm^3, the tumors were staged to ensure uniformity of the tumor mass among various treatment groups. The MDA-MB-468 breast model was dosed intraveneously Q4dx4 with PBS vehicle, humanized anti-Notch ADCs and control huNeg-8.8 ADCs at the doses provided in Tables 14 and 15.

[2] = tested on: MDA-MB-468/hNotch; test: In vitro cytotoxicity assay with anti-Notch ADCs (MTS); assay type: cell-based
Method: (§1) The effects of anti-Notch ADCs were assessed on 1) cell lines endogenously expressing Notch protein: HCC2429 (lung cancer), OVCAR3 (ovarian cancer) and MDA-MB-468 (breast cancer), 2) cell lines engineered to over-express Notch protein: MDA-MB-468/hNotch and U2OS/hNotch, and 3) a negative control cell line (SW900) using an MTS cellular viability indicator (Promega, Madison, Wis.). These cell lines were cultured with increasing concentrations of anti-Notch ADCs comprising humanized anti-Notch antibodies, hu28 and hu75, and rat-human chimeric anti-Notch antibodies, ch28 and ch75, conjugated to various linker-payload combinations of the present invention. As a specificity control for the anti-Notch-ADCs, non-targeted control-ADCs (huNeg8.8-ADCs or ch2H6-ADCs) were also tested on the same cell lines. After four days, viability of each culture was assessed. IC50 values were calculated by logistic non-linear regression and presented as ng Ab/mL. The drug antibody ratio (DAR) is also provided.

[3] = tested on: U2OS/hNotch; test: as above; assay type: cell-based
Method: as §1

[4] = tested on: MDA-MB-468 (breast cancer); test: as above; assay type: cell-based
Method: as §1

[5] = tested on: OVCAR3 (ovarian cancer); test: as above; assay type: cell-based
Method: as §1

[6] = tested on: HCC2429 (lung cancer); test: as above; assay type: cell-based
Method: as §1

[7] = first of two individual repeats
[8] = second of two individual repeats

B1: hu28-vc0101: humanized anti-Notch antibody hu28 conjugated to mcValCitPABC-#54 (conjugate)
heavy: EVQLVESGGGLVQPGGSLRLSCAASGFTFRDYGMTWVRQAPGKGLEWVAYISSGSNYIYYAEAVKGRFTISRDNAKNSLYLQMNSLRAEDTAVYYCARRGPFVLDAWGQGTLVTVSS[human IgG1 constant region left out]
light: DIQMTQSPSSLSASVGDRVTITCKASQSINRYLHWYQQKPGKAPKLLIYNANGLQTGVPSRFSGSGSGTDFTLTISSLQPEDFATYYCLQHNTWPDTFGGGTKVEIKRTVAAPSVFIFPPSDEQLKSGTASVVCLLNNFYPREAKVQWKVDNALQSGNSQESVTEQDSKDSTYSLSSTLTLSKADYEKHKVYACEVTHQGLSSPVTKSFNRGEC
[1]; Dose 0.3 mg/kg Q4dx4 iv, DAY 0
  tumor volume (mm^3 ± SEM): 336 ± 19 mm^3
[1]; Dose 0.3 mg/kg Q4dx4 iv, DAY 4
  tumor volume (mm^3 ± SEM): 403 ± 28 mm^3
[1]; Dose 0.3 mg/kg Q4dx4 iv, DAY 7
  tumor volume (mm^3 ± SEM): 395 ± 38 mm^3
[1]; Dose 0.3 mg/kg Q4dx4 iv, DAY 11
  tumor volume (mm^3 ± SEM): 412 ± 42 mm^3
[1]; Dose 0.3 mg/kg Q4dx4 iv, DAY 14
  tumor volume (mm^3 ± SEM): 488 ± 45 mm^3
[1]; Dose 0.3 mg/kg Q4dx4 iv, DAY 18
  tumor volume (mm^3 ± SEM): 497 ± 55 mm^3
[1]; Dose 0.3 mg/kg Q4dx4 iv, DAY 21
  tumor volume (mm^3 ± SEM): 509 ± 60 mm^3
[1]; Dose 0.3 mg/kg Q4dx4 iv, DAY 26
  tumor volume (mm^3 ± SEM): 590 ± 66 mm^3
[1]; Dose 1 mg/kg Q4dx4 iv, DAY 0
  tumor volume (mm^3 ± SEM): 348 ± 22 mm^3
[1]; Dose 1 mg/kg Q4dx4 iv, DAY 4
  tumor volume (mm^3 ± SEM): 439 ± 21 mm^3
[1]; Dose 1 mg/kg Q4dx4 iv, DAY 7
  tumor volume (mm^3 ± SEM): 415 ± 25 mm^3
[1]; Dose 1 mg/kg Q4dx4 iv, DAY 11
  tumor volume (mm^3 ± SEM): 372 ± 34 mm^3
[1]; Dose 1 mg/kg Q4dx4 iv, DAY 14
  tumor volume (mm^3 ± SEM): 314 ± 27 mm^3
[1]; Dose 1 mg/kg Q4dx4 iv, DAY 18
  tumor volume (mm^3 ± SEM): 261 ± 33 mm^3
[1]; Dose 1 mg/kg Q4dx4 iv, DAY 21
  tumor volume (mm^3 ± SEM): 219 ± 41 mm^3
[1]; Dose 1 mg/kg Q4dx4 iv, DAY 26
  tumor volume (mm^3 ± SEM): 253 ± 61 mm^3
[1]; Dose 1 mg/kg Q4dx4 iv, DAY 29
  tumor volume (mm^3 ± SEM): 238 ± 64 mm^3
[1]; Dose 1 mg/kg Q4dx4 iv, DAY 32
  tumor volume (mm^3 ± SEM): 266 ± 67 mm^3
[1]; Dose 1 mg/kg Q4dx4 iv, DAY 35
  tumor volume (mm^3 ± SEM): 271 ± 73 mm^3
[1]; Dose 1 mg/kg Q4dx4 iv, DAY 39
  tumor volume (mm^3 ± SEM): 310 ± 88 mm^3
[1]; Dose 1 mg/kg Q4dx4 iv, DAY 42
  tumor volume (mm^3 ± SEM): 349 ± 95 mm^3
[1]; Dose 1 mg/kg Q4dx4 iv, DAY 47
  tumor volume (mm^3 ± SEM): 394 ± 123 mm^3
[1]; Dose 1 mg/kg Q4dx4 iv, DAY 50
  tumor volume (mm^3 ± SEM): 377 ± 118 mm^3
[1]; Dose 1 mg/kg Q4dx4 iv, DAY 53
  tumor volume (mm^3 ± SEM): 414 ± 127 mm^3
[1]; Dose 1 mg/kg Q4dx4 iv, DAY 56
  tumor volume (mm^3 ± SEM): 470 ± 128 mm^3
[1]; Dose 1 mg/kg Q4dx4 iv, DAY 60
  tumor volume (mm^3 ± SEM): 532 ± 140 mm^3
[1]; Dose 1 mg/kg Q4dx4 iv, DAY 63
  tumor volume (mm^3 ± SEM): 509 ± 117 mm^3
[1]; Dose 1 mg/kg Q4dx4 iv, DAY 67
  tumor volume (mm^3 ± SEM): 611 ± 148 mm^3
[1]; Dose 3 mg/kg Q4dx4 iv, DAY 0
  tumor volume (mm^3 ± SEM): 347 ± 15 mm^3
[1]; Dose 3 mg/kg Q4dx4 iv, DAY 4
  tumor volume (mm^3 ± SEM): 359 ± 24 mm^3
[1]; Dose 3 mg/kg Q4dx4 iv, DAY 7
  tumor volume (mm^3 ± SEM): 326 ± 27 mm^3
[1]; Dose 3 mg/kg Q4dx4 iv, DAY 11
  tumor volume (mm^3 ± SEM): 227 ± 27 mm^3
[1]; Dose 3 mg/kg Q4dx4 iv, DAY 14
  tumor volume (mm^3 ± SEM): 147 ± 20 mm^3
[1]; Dose 3 mg/kg Q4dx4 iv, DAY 18
  tumor volume (mm^3 ± SEM): 77 ± 10 mm^3
[1]; Dose 3 mg/kg Q4dx4 iv, DAY 21
  tumor volume (mm^3 ± SEM): 16 ± 8 mm^3
[1]; Dose 3 mg/kg Q4dx4 iv, DAY 26
  tumor volume (mm^3 ± SEM): 0 ± 0 mm^3
[1]; Dose 3 mg/kg Q4dx4 iv, DAY 29
  tumor volume (mm^3 ± SEM): 0 ± 0 mm^3
[1]; Dose 3 mg/kg Q4dx4 iv, DAY 32
  tumor volume (mm^3 ± SEM): 0 ± 0 mm^3
[1]; Dose 3 mg/kg Q4dx4 iv, DAY 35
  tumor volume (mm^3 ± SEM): 0 ± 0 mm^3
[1]; Dose 3 mg/kg Q4dx4 iv, DAY 39
  tumor volume (mm^3 ± SEM): 0 ± 0 mm^3
[1]; Dose 3 mg/kg Q4dx4 iv, DAY 42
  tumor volume (mm^3 ± SEM): 0 ± 0 mm^3
[1]; Dose 3 mg/kg Q4dx4 iv, DAY 47
  tumor volume (mm^3 ± SEM): 0 ± 0 mm^3
[1]; Dose 3 mg/kg Q4dx4 iv, DAY 50
  tumor volume (mm^3 ± SEM): 0 ± 0 mm^3
[1]; Dose 3 mg/kg Q4dx4 iv, DAY 53
  tumor volume (mm^3 ± SEM): 0 ± 0 mm^3
[1]; Dose 3 mg/kg Q4dx4 iv, DAY 56
  tumor volume (mm^3 ± SEM): 0 ± 0 mm^3
[1]; Dose 3 mg/kg Q4dx4 iv, DAY 60
  tumor volume (mm^3 ± SEM): 0 ± 0 mm^3
[1]; Dose 3 mg/kg Q4dx4 iv, DAY 63
  tumor volume (mm^3 ± SEM): 0 ± 0 mm^3
[1]; Dose 3 mg/kg Q4dx4 iv, DAY 67
  tumor volume (mm^3 ± SEM): 0 ± 0 mm^3
[1]; Dose 3 mg/kg Q4dx4 iv, DAY 70
  tumor volume (mm^3 ± SEM): 0 ± 0 mm^3
[1]; humanized ADCs, Q4dx4, doses of Tables 14 and 15
  effect on growth of MDA-MB-468 breast xenografts (in words): inhibited growth of MDA-MB-468 breast xenografts in a dose-dependent manner
[2]; [7]
  IC50 (ng Ab/mL): 3.2 ng Ab/mL
[2]; [8]
  IC50 (ng Ab/mL): 3 ng Ab/mL
[3]
  IC50 (ng Ab/mL): 1330 ng Ab/mL
[4]
  IC50 (ng Ab/mL): 6545 ng Ab/mL
[5]
  IC50 (ng Ab/mL): 306 ng Ab/mL
[6]; [7]
  IC50 (ng Ab/mL): 473 ng Ab/mL
[6]; [8]
  IC50 (ng Ab/mL): 2940 ng Ab/mL
